# In PubChem BioAssay AID1963576 (National Center for Advancing Translational Sciences (NCATS), 2024):
# Among all 46,000 compounds or so, about 60 (0.1%) were called active. Roughly 3% stayed inconclusive and do not appear here. The call rests on the fitted dose curve; in most records, active means well fitted inhibition curve with a large enough effect; inconclusive means small, poorly fitted or top-dose-only effect; inactive means no such curve, though single readings can be large or run the other way. The list shows a part of the results.
# Assay: Primary qHTS assay for Inhibitors of ovarian cancer metastasis using an organotypic tumor microenvironment (TME) model. Further: nearly all actives have a fitted effect of over 65% in size.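 On activity change, negative = inhibition: plate controls were DMSO wells for no effect and tomatine positive control wells for full effect.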
# Details: SKOV3ip1-GFP adhesion/invasion on 3D omental model, fluorescence; series mostly up to 45.8 µM; activity change, negative = inhibition: at the top concentration
# Procedure, shortened: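 Adhesion/invasion was scored as fixed GFP-labeled SKOV3ip1 cell counts (488/509 nm), normalized to DMSO and tomatine controls. Cancer cells in serum-free medium, with four compound doses (0.36-46 umol/L), sat 2 hr at RT then 16 hr at 37 C on a 48 hr fibroblast/mesothelial/ECM culture.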
SMILES,"activity change, negative = inhibition",outcome
COc1ccc(OCC(=O)NCCS(=O)(=O)N2CCN(c3cccc(Cl)c3)CC2)cc1,inactive: -5.42%,–
COc1ccc(-c2noc(CCC(=O)NCc3ccc(OC)cc3OC)n2)cc1,–,inactive
O=C(Nc1cccc(Br)c1)c1cccc(S(=O)(=O)N2CCCCCC2)c1,inactive: -0.892%,–
CCC(CC)C(=O)Nc1ccc2nc(SCC(=O)N3c4ccccc4CC3C)sc2c1 (stereo not given),–,inactive
CC(C)Oc1ccc(CNC(=O)c2ccc3nc(Cc4ccccc4)oc3c2)cc1,inactive: 0.987%,–
Clc1ccc(C(c2ccccc2Cl)C(Cl)Cl)cc1 (stereo not given),inactive: -3.74%,–
CCOC(=O)c1c(C)sc(-c2c(-c3ccc(OC)c(F)c3)[nH]c3c2c(=O)[nH]c(=O)n3C)c1O,inactive: -21.5%,–
Cc1cc(C)cc(OCC(=O)N(Cc2ccc(C)o2)C2CCS(=O)(=O)C2)c1 (stereo not given),inactive: -7.21%,–
Cc1ccc(-c2nn3c(=O)cc(CN4CCN(C(=O)Nc5cc(Cl)ccc5C)CC4)nc3s2)cc1,inactive: -1.07%,–
CCC(C)NC(=O)CSc1nc2cc3c(cc2c(=O)n1CCCC(=O)NCc1ccc2c(c1)OCO2)OCO3 (stereo not given),–,inactive
COc1cc(OC)c(Nc2ncnc3onc(-c4cccc(Cl)c4)c23)cc1Cl,–,inactive
COc1ccc(Cl)cc1NC(=O)c1c(NCc2ccc(C)o2)sc2c1CCCC2,inactive: 4.7%,–
COc1cccc(N(CC(=O)N2CCC(C)CC2)S(=O)(=O)c2ccc(C)cc2)c1,inactive: 1.25%,–
Cc1ccc(CN(Cc2ccco2)C(=O)c2oc3c(C)c(C)ccc3c2C)cc1,–,inactive
COCCNC(=O)c1cc2c(Cl)nc3ccc(C)cc3c2s1,inactive: 19.5%,–
C=C1C(=CC=C2CCCC3(C)[C@@H]([C@H](C)C=CC=CC(O)(CC)CC)CC[C@@H]23)C[C@@H](O)C[C@@H]1O (stereo not given in full),inactive: 3.74%,–
Cc1cc(C)cc(NC(=O)C2(c3cccs3)CCOCC2)c1,–,inactive
CC(C)c1ccc(Nc2ncnc3c2c(-c2ccccc2)cn3-c2ccccc2)cc1,inactive: 8.74%,–
COc1ccccc1CNC(=O)Cn1nc(C)c2nn(-c3ccc(Cl)cc3)c(C)c2c1=O,inactive: -0.538%,–
C=CCc1c(C)nc2nc(SCC(=O)Nc3ccc(OCC)cc3)nn2c1C,inactive: 4.86%,–
Cn1c(=O)c2c(-c3ccccc3Br)n(CCc3ccccc3)cc2n(C)c1=O,inactive: 115%,–
CCCCOc1ccc(C2=NC(c3ccccc3)=Nc3ccc(OC)cc3N2)cc1,inactive: 2.11%,–
CCc1ccc(NC(=O)CSc2nnc(-c3cc4occc4n3C)n2-c2ccccc2C)cc1,inactive: 30.8%,–
Clc1ccccc1Cc1cn2cc(-c3ccccc3)nc2s1,–,inactive

SMILES,"activity change, negative = inhibition",outcome
COc1cccc(CNC(=O)Cn2ccc3cc(S(=O)(=O)N4CCC(C)CC4)ccc32)c1,inactive: -1.76%,–
Clc1cccc(-n2ncc3c(N4CCN(Cc5ccccc5)CC4)ncnc32)c1,inactive: -8.55%,–
COc1ccccc1NC(=O)CSc1nnc2c3ccccc3n(C)c2n1,inactive: 0.123%,–
CC(C)COc1ccccc1C1CC(=O)Nc2cc3c(cc21)OCO3 (stereo not given),–,inactive
Cc1ccc(-n2nc(C)c3c(C(=O)Nc4ccc(Br)c(C)c4)cc(C)nc32)cc1,inactive: 10.5%,–
COc1ccccc1Nc1ncnc2c1nc1n2CCCC1,–,inactive
COc1ccc(NC(=O)Cn2ccn(-c3ccccc3)c(=O)c2=O)cc1,–,inactive
Cc1cccc(C)c1OCC(=O)N[C@@H](Cc1ccccc1)[C@@H](O)C[C@H](Cc1ccccc1)NC(=O)[C@H](C(C)C)N1CCCNC1=O,inactive: 1.24%,–
Cc1ccc(-c2nc3cccnc3s2)cc1NC(=O)Cc1ccccc1,inactive: -9.3%,–
CCOCCCn1c(=N)c(C(=O)NCC2CCCO2)cc2c(=O)n3cc(C)ccc3nc21 (stereo not given),inactive: -8.48%,–
COc1cccc(-c2nc(SCC(=O)N3CCc4ccccc43)c3c(=O)n(C)c(=O)n(C)c3n2)c1,inactive: 6.01%,–
COc1ccc(CCC(=O)NCc2ccc3c(c2)CCN3C(=O)c2ccc(C)cc2)cc1,inactive: 11.1%,–
COCCNC(=O)CSc1nc(-c2ccc(C)cc2)nc2c1c(=O)n(C)c(=O)n2C,inactive: 2.07%,–
COC(=O)C1=C(C)NC(=O)C1(NC(=O)c1ccccc1C)C(F)(F)F (stereo not given),–,inactive
COc1ccccc1NC(=O)c1c(NC(=O)c2ccccc2Cl)sc2c1CCC2,inactive: -5.05%,–
c1ccc(CNc2nc(N3CCOc4ccccc43)nc3c2CCCC3)cc1,inactive: 3.19%,–
CCOc1ccccc1CNC(=O)CN1C(=O)CCc2cc(S(=O)(=O)N3CCCCC3)ccc21,inactive: 51.6%,–
CCOC(=O)c1c(-c2ccccc2)oc2ccc(NS(=O)(=O)c3ccc(C(C)C)cc3)cc12,inactive: 0.469%,–
CCc1ccc(S(=O)(=O)c2nnn(-c3cccc(C)c3)c2N)cc1,inactive: 11.7%,–
CCc1ccc(NC(=O)CCn2cnc3ccccc3c2=O)cc1,inactive: 3.29%,–
COc1ccc(CN2C(=O)C(NC(=O)c3ccccc3OC)(C(F)(F)F)N=C2c2ccccc2)cc1 (stereo not given),–,inactive
CC(=O)N1CCc2c(sc3c2c(=O)n(Cc2ccccc2)c(=O)n3CC(=O)Nc2ccc(C)c(F)c2)C1,–,inactive
Cn1c(=O)c(=O)n(C)c2cc(NC(=O)c3ccccc3Br)ccc21,inactive: 3.67%,–
CCOc1ccc(CNC(=O)CCCn2c(=O)c3cccn3c3ccc(F)cc32)cc1,inactive: 2.4%,–

SMILES,"activity change, negative = inhibition",outcome
CCc1ccccc1NC(=O)c1cnn2c(C(F)(F)F)cc(-c3ccc(OC)c(OC)c3)nc12,inactive: 3.64%,–
COc1cc(OC)c(NC(=O)Cn2c(=O)cc(C(F)(F)F)c3c(C)nn(C)c32)cc1Cl,inactive: -1.64%,–
COCCNC(=O)C(=O)Nc1c2c(nn1-c1ccccc1)CS(=O)(=O)C2,inactive: 13.8%,–
COc1ccccc1CNc1nc(-c2ccco2)nn1S(=O)(=O)c1ccc(Cl)cc1,inactive: -3.1%,–
COc1cc(C(=O)Nc2ccc(-c3cc(C(F)(F)F)nn3-c3ccccc3)cc2)cc(OC)c1OC,inactive: -10.9%,–
CCOc1ccc(CCNC(=O)Cn2nc(C)c3c(C)n(-c4ccccc4)nc3c2=O)cc1OCC,inactive: -7.69%,–
CCOC(=O)c1c(C)sc(-c2c(-c3cc(C)ccc3C)[nH]c3c2c(=O)[nH]c(=O)n3C)c1O,inactive: 0.0933%,–
Cc1cccc(NC(=O)Cn2nc(N3CCN(c4ccccc4)CC3)ccc2=O)c1C,inactive: -4.02%,–
COc1ccccc1OCc1ccc(C(=O)Nc2ccc(C)c(C)c2)o1,inactive: -9.77%,–
CCOC(=O)c1cnn(-c2cccc(F)c2)c1C1CCNCC1,–,inactive
Cc1ccccc1NC(=O)CN(C)S(=O)(=O)c1cccc2nsnc12,inactive: 2.51%,–
COc1cccc(CNC(=O)CCC(=O)N2CC3CCCN3c3ccccc32)c1 (stereo not given),inactive: 3.06%,–
CCOc1cc(C(=O)NCc2ccc3c(c2)CCN3C(=O)CC)cc(OCC)c1OCC,–,inactive
CCCCN(CC)CCCNC(=O)c1cn(C)c2ccc(S(=O)(=O)N(C)C3CCCCC3)cc2c1=O,–,inactive
O=C(NCc1ccc(F)cc1)C1CCN(C(=O)c2cnn(-c3ccccc3)c2-n2cccc2)CC1,–,inactive
O=C(Nc1ccccc1C(=O)O)c1cccc(S(=O)(=O)N2CCCC2)c1,inactive: -22.2%,–
CCc1cccc(NC(=O)Cn2c(=O)n(CC3CCC(C(=O)NCCc4ccccc4)CC3)c(=O)c3ccccc32)c1 (stereo not given),inactive: 0.459%,–
COc1ccc(-c2[nH]ncc2C(=O)NCc2ccc(F)cc2)cc1,–,inactive
Cc1ccc(C(=O)N2CCN(c3ccccc3F)CC2)cc1NC(=O)c1nsc2ccccc12,inactive: 16.1%,–
CCC(Cn1nnc2ccccc2c1=O)NC(=O)Nc1cccc(Cl)c1 (stereo not given),inactive: -43.6%,–
COc1ccc(Cl)cc1NC(=O)CN1c2ccccc2S(=O)(=O)c2ccccc21,inactive: -23.2%,–
O=C(CSC1=Nc2ccccc2N=C(c2ccc(F)cc2)C1)Nc1cc(F)ccc1F,inactive: 36.9%,–
CN(C(=O)Nc1cn(C)c(=O)c2ccccc12)c1ccccc1,inactive: -9.19%,–
O=C(NC1CC(=O)N(c2cccc(F)c2)C1)C1CCCCC1 (stereo not given),inactive: -0.344%,–

SMILES,"activity change, negative = inhibition",outcome
COc1ccccc1CCNC(=O)Cc1c(C)c2c(cc(C)c3c(C)coc32)oc1=O,inactive: 6.04%,–
COc1ccc(N2C(=O)C(CC(=O)Nc3ccc(F)cc3)N(CCC3=CCCCC3)C2=O)cc1 (stereo not given),inactive: 1.15%,–
CCCCNc1cc(NC2CCCCC2)c2c3c(onc13)-c1ccccc1C2=O,inactive: -3.28%,–
COc1ccccc1CCNC(=O)c1cc2ccccn2n1,inactive: -11.3%,–
COCCCNC(=O)c1c(NC(=O)c2cc(=O)c3cc(C)c(C)cc3o2)sc2c1CCCC2,inactive: 7.69%,–
CCCN1C(=O)CN(C2CCCCCC2)C(=O)C1c1ccc(OCC)c(OC)c1 (stereo not given),inactive: 0.835%,–
O=C(CCC1N=C2c3ccccc3N=C(SCc3cccc(F)c3)N2C1=O)NC1CCCCC1 (stereo not given),inactive: -10.6%,–
CC1=C(C(=O)Nc2ccccc2Cl)C(c2cccs2)n2ncnc2N1 (stereo not given),inactive: 3.23%,–
COC(=O)c1cc2sccc2n1Cc1ccccc1,inactive: -10.5%,–
CCn1cc2nc(SCc3cccc(OC)c3)n(Cc3ccc(Cl)cc3)c(=O)c2n1,inactive: -12.4%,–
N#CC[C@H](C1CCCC1)n1cc(-c2ncnc3[nH]ccc23)cn1,inactive: 36.9%,–
CCCOc1ccc(CNC(=O)C2CCN(c3nc4ccccc4nc3C(F)(F)F)CC2)cc1,–,inactive
Cc1ccc(SCC(=O)Nc2cccc(-c3nc4cc(Cl)ccc4o3)c2C)cc1,inactive: -9.69%,–
COc1cccc(NS(=O)(=O)c2ccc3[nH]cc(C(=O)NC4CCCCC4)c(=O)c3c2)c1,inactive: 8.83%,–
O=S(=O)(NCc1ccccc1)c1ccc2[nH]c3c(c2c1)CCCCC3,inactive: -2.18%,–
Cc1cc(NS(=O)(=O)c2ccc(NC(=O)COc3c(C)cc(Br)cc3C)cc2)no1,–,inactive
CCOC(=O)C1CCCN(C(=O)c2cc3c(=O)n(C)c4ccccc4c3s2)C1 (stereo not given),inactive: 2.06%,–
Cc1c(CNC(C)c2ccccc2)c(C(=O)O)c(C)n1Cc1c(F)cccc1Cl (stereo not given),inactive: 2.08%,–
CCOC(=O)N1CCN([N+]([O-])=NOc2cc(ON=[N+]([O-])N3CCN(C(=O)OCC)CC3)c([N+](=O)[O-])cc2[N+](=O)[O-])CC1,inactive: 21%,–
CCOc1ccc(-c2c(C)nn3c(C)c(C(=O)NCC(C)c4ccccc4)cnc23)cc1OCC (stereo not given),–,inactive
Cc1ccc(-n2nc(CO)c(C(=O)NCCc3ccccc3)n2)cc1C,inactive: -4.18%,–
CCc1ccc(N2C(=O)CS(=O)(=O)C23C(=O)N(Cc2ccccc2)c2ccccc23)cc1 (stereo not given),inactive: 6.21%,–
COc1cc(-c2noc(-c3nnn(-c4ccc(Cl)cc4)c3C)n2)cc(OC)c1OC,inactive: -8.64%,–
